Test results taken from PubChem BioAssay AID1030 (National Center for Advancing Translational Sciences (NCATS), 2008).
Screen size: about 220,000 compounds; about 16,000 (7.3%) were called active. This list was built around the results that the source calls inconclusive (neither active nor inactive); the mix of calls is not that of the screen. The call rests on the fitted dose curve; in most records, active means well fitted inhibition curve with a large enough effect (not every such curve was filed as active); inconclusive means small, poorly fitted or top-dose-only effect, or another doubt; inactive means no such curve, though single readings can be large or run the other way. No potency is given beside an inconclusive call; the fits are too rough.

molecular target: Aldehyde dehydrogenase 1A1 (Homo sapiens) (UniProt P00352); assay: qHTS Assay for Inhibitors of Aldehyde Dehydrogenase 1 (ALDH1A1); conditions: Purified ALDH1A1, NADH fluorescence, propionaldehyde substrate; series mostly up to 75.3 µM; activity, negative = inhibition: at the top concentration;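 on activity, negative = inhibition: plate controls were no enzyme wells and a reference inhibitor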
UniProt P00352, sequence (P00352 whole entry, looked up): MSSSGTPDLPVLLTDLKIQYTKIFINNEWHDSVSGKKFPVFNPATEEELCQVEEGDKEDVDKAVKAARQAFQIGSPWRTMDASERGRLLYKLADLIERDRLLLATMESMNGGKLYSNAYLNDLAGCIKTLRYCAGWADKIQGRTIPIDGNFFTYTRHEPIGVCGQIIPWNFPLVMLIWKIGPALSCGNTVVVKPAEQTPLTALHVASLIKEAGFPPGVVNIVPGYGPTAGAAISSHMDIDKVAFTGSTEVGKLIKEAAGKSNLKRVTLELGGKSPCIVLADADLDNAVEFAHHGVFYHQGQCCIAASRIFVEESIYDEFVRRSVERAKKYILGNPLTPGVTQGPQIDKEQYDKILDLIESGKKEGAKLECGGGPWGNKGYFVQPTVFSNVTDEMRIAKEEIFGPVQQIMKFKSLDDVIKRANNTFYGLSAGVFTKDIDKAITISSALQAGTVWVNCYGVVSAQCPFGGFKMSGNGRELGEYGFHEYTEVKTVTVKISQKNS
Potency means the concentration at half of the fitted maximal effect; tags describe the fitted curve by direction and shape.

Row | SMILES | Potency | activity, negative = inhibition
1 | CC(=O)Nc1ccc(NC(=O)CSc2nnc(C)c(=O)[nH]2)cc1 | inconclusive [inhibitor, single point] | –
2 | CCOc1ccc(OCCn2nnc3ccccc3c2=O)cc1 | – | inactive: -2.13%
3 | O=C(C1=NNCC1c1ccccc1)C1CO1 (stereo unspecified) | inconclusive [inhibitor, single point] | –
4 | COC(=O)c1cc(=O)c(O)c2c(O)c(O)ccc2c1 | active: 11.2 µM | –
5 | CCOC(=O)c1nnc(-c2ccccc2)o1 | – | inactive: 13.1%
6 | Cc1cc(NS(=O)(=O)c2ccc(NC(=S)NC(=O)c3ccccc3)cc2)no1 | inconclusive [inhibitor, single point] | –
7 | CCc1ccccc1-n1c(SCC(=O)N2CCCC2)nc2[nH]ncc2c1=O | inconclusive [inhibitor, single point] | –
8 | CCOc1ccc(-n2c(SCC(=O)Nc3ccc4c(c3)OCO4)nc3c(c2=O)SCC3)cc1 | – | inactive: -15.1%
9 | C=CCOc1ccccc1/C=c1\sc2nc(=O)c(C)nn2c1=O | active: 22.4 µM | –
10 | CCOC(=O)CNC(=S)N(Cc1ccccc1F)C1CCCCC1 | inconclusive [inhibitor, single point] | –
11 | Cc1ccccc1-c1nc(S(=O)(=O)c2ccc(Cl)cc2)c(NCCN2CCOCC2)o1 | inconclusive [inhibitor, single point] | –
12 | CCC1SC(CC)C(=O)N(CC(=O)Nc2ccc3c(c2)OCO3)C1=O (stereo unspecified) | – | inactive: -0.457%
13 | CCOC(=O)C(C)Sc1nc2c(cnn2-c2ccc(C)cc2)c(=O)[nH]1 (stereo unspecified) | – | inactive: 6.29%
14 | O=C1CCCN1CC(CN1CCOCC1)Sc1nnnn1-c1ccccc1 (stereo unspecified) | inconclusive [inhibitor, single point] | –
15 | Cc1cc(C)c2c(C)nn(C3CCCCC3)c2n1 | inconclusive [inhibitor, single point] | –
16 | COC(=O)/C=C/c1ccc(C(=O)NCC(=O)N[C@@H](CCC(=O)OC)C(=O)N[C@@H](CC(C)C)C(N)=O)cc1 | inconclusive [inhibitor, single point] | –
17 | CCc1ccc(C(O)(c2ccccc2OC)C(CN2CCOCC2)c2ccccc2)cc1 (stereo unspecified) | – | inactive: 4.67%
18 | CN(C)c1ccc(/C=N/NC(=S)NCc2ccccc2)cc1 | inconclusive [inhibitor, single point] | –
19 | O=C(NCc1ccncc1)NC12CC3CC(CC(C3)C1)C2 | inconclusive [inhibitor, single point] | –
20 | COc1ccc(OC)c2c1nc1n2CCS1 | inconclusive [inhibitor, partial curve] | –
21 | COCCn1c(SCC(N)=O)nc2c(c1=O)SC(C)C2 (stereo unspecified) | inconclusive [inhibitor, single point] | –
22 | CN(C)/C(CN1CCN(C=O)CC1)=C1\N=C(c2ccccc2)OC1=O | inconclusive [inhibitor, partial curve] | –
23 | NC(=O)c1ccsc1NC(=O)c1ccc(S(=O)(=O)N2CCCc3ccccc32)cc1 | – | inactive: -16.4%

Row | SMILES | Potency | activity, negative = inhibition
24 | CC(=O)Nc1ccc(N2CCc3c(C)c(C#N)c4nc5ccccc5n4c32)cc1 | inconclusive [inhibitor, single point] | –
25 | O=C(Nc1cnccc1C(F)(F)F)NC1CCCCC1 | – | inactive: 3.68%
26 | Cc1noc2ncnc(Sc3c(Cl)cccc3Cl)c12 | inconclusive [inhibitor, single point] | –
27 | Fc1ccc(NCc2n[nH]c(=S)n2Cc2ccccc2)cc1 | – | inactive: -3.66%
28 | CCOC(=O)OCC1OC(C#Cc2ccccc2)C=CC1OC(=O)OCC (stereo unspecified) | active: 3.55 µM | –
29 | C=CC(C1=CC(=O)C(OC)=CC1=O)c1ccccc1 (stereo unspecified) | active: 22.4 µM | –
30 | N#C/C(=C/c1cn[nH]c1-c1ccc(Br)cc1)C(=O)O | inconclusive [inhibitor, partial curve] | –
31 | O=C(CSc1nc2cccnc2n1Cc1ccccc1)NC1CCCCC1 | inconclusive [inhibitor, single point] | –
32 | CC(=O)Nc1sc(C)c(C)c1CN1CCN(S(=O)(=O)c2ccccc2)CC1 | inconclusive [inhibitor, single point] | –
33 | COC(=O)c1cn(Cc2cccc(C)c2)nn1 | – | inactive: 10.4%
34 | NC(CSS(=O)(=O)O)=N[C@@H]1C[C@H]2CC[C@@H]1C2 | – | inactive: 2.5% [at 13.5 µM]
35 | COc1ccc(-c2oc(NC(=O)CSc3nncn3C)c(C#N)c2-c2ccc(OC)cc2)cc1 | inconclusive [inhibitor, single point] | –
36 | CC(=O)N1N=C(c2ccc(Br)cc2)OC1(C)CC(=O)Nc1ccccc1 (stereo unspecified) | inconclusive [inhibitor, single point] | –
37 | Cc1ccccc1OCC(O)Cn1c(NCc2ccccc2)nc2c1c(=O)[nH]c(=O)n2C (stereo unspecified) | – | inactive: 2.04%
38 | CCC(O)C1CCN(Cc2cn(Cc3ccccc3)nc2-c2cc3ccccc3o2)CC1 (stereo unspecified) | inconclusive [inhibitor, single point] | –
39 | Cn1c(CN2CCOCC2)nc2cc(NC(=O)c3ccc(F)cc3)ccc21 | inconclusive [inhibitor, single point] | –
40 | O=C(N/N=C1/C[C@@H](O)[C@@H](O)[C@@H]2[C@H]3C(=O)N(c4ccc(F)cc4F)C(=O)[C@@H]3CC[C@H]12)OCc1ccccc1 | inconclusive [inhibitor, partial curve] | –
41 | O=c1c(-c2ccccc2)nc2cnc(N3CCOCC3)nc2n1C[C@H]1CCCO1 | inconclusive [inhibitor, partial curve] | –
42 | COc1ccc(N/N=C(\C#N)C(=O)NCCc2ccc(OC)c(OC)c2)cc1 | inconclusive [inhibitor, single point] | –
43 | CN(/N=C/c1cc(Cl)cc(Cl)c1O)c1c(Cl)cccc1[N+](=O)[O-] | – | inactive: 4.1%
44 | COc1ccc(-c2nc(C#N)c(N3CCC(C(N)=O)CC3)o2)cc1 | inconclusive [inhibitor, partial curve] | –
45 | CSc1ccc(Cl)c(C(=O)NC2CCCC2)c1 | – | inactive: 9.29%
46 | OCCCCNCc1cc(Br)ccc1OCc1ccccc1 | inconclusive [inhibitor, single point] | –
